# Source: ChEMBL document CHEMBL4888484, “Replenishing the malaria drug discovery pipeline: Screening and hit evaluation of the MMV Hit Generation Library 1 (HGL1) against asexual blood stage Plasmodium falciparum ,using a nano luciferase reporter read-out” (2022)
# Among all 150,000 compounds or so, about 540 (0.36%) showed an effect of 50% or more. This is one part of the list.
# System: Plasmodium falciparum
# Assay: Primary screen in NF54 nanoGlo assay, in single point, at 2uM, 72h; a lower Z score goes with more inhibition
# Type: functional, Erythrocyte
# Conditions: timepoint 72 hour
Structure (SMILES),% Inhibition,Z score
CC1(C(=O)N2CC(C3CCCC3)C2)CC2CC2C1 (stereo unspecified),5%,-0.72
CCOc1ccccc1C(=O)Nc1ccc2c(c1)C(=O)N(C1CCCCC1)C2=O,1%,-0.11
COc1ccc(OC)c(N2CCN(CC(=O)NCc3ccccc3OC)C2=O)c1,-6%,1.11
Cc1ccc(-n2[nH]c(C(=O)NCc3cccc(OCC(F)F)c3)cc2=O)cc1,-9%,1.05
CC(C)(C)c1cnc(CNc2ccc(N3CCCC3=O)cc2)o1,7%,-1.01
O=C(Cc1cnn(-c2ccccc2)c1)NCCc1ccc(F)cc1,-5%,0.94
CC1(C)C[C@@H](CNC(=O)CCc2ccsc2)CCO1,-3%,0.45
O=C(NCC1CCCCC1)[C@H]1CCCN(C(=O)c2cccs2)C1,3%,-0.44
COC1(CNC(=O)Nc2c(F)cc(F)cc2Cl)CCC1,-5%,0.61
CC1CC(C)CN(c2cncc(OCCO)n2)C1 (stereo unspecified),-16%,2.41
COCCN1CC2(CCC1=O)CCN(c1nc(C)cc(C3CCC3)n1)CC2,-10%,1.14
COc1ccc2cc(C(=O)N3CCC(C(C)C(=O)NCCCN4CCCCC4C)CC3)[nH]c2c1 (stereo unspecified),-16%,1.48
O=C(c1ncoc1C1CC1)N(Cc1ccncc1)Cc1ccncc1,2%,-0.4
Cc1ncsc1CCN(C)Cc1cc(=O)n2c3c(cccc13)CCC2,11%,-1.5
O=C(Nn1cnnc1)c1csc2c1CCCC2,-13%,1.83
CCCCN(C)C(=O)C1CCN(Cc2ccccn2)CC1,4%,-0.64
CN(C)c1cc(N2CCC3(CC2)C[C@H](c2ccccc2)C(=O)N3C)ncn1,1%,-0.27
COc1ccc(OC)c(S(=O)(=O)Nc2cnn(Cc3ccc(C)cc3)c2)c1,-13%,1.75
CCN1CC(=O)N[C@H]2CN(C(=O)CN(C)C)CC[C@@H]2OCc2cccc(c2)Oc2cccc(c2)CC1=O,-5%,0.97
Cc1nc2c(s1)CCC[C@@H]2Nc1ncccc1C(N)=O,-14%,1.76
c1nc(N2CCCN(c3ccc4nncn4n3)CC2)c2sccc2n1,-12%,1.58
Cc1ccccc1-n1ncc2c1NC(=O)C[C@]21C(=O)N(CC(N)=O)c2ccccc21,1%,-0.14
O=C(NCc1ccc2c(c1)OCO2)[C@@H]1CC(c2ccccc2)=NO1,-9%,0.77
